Reference: PubChem BioAssay AID1346428 (National Center for Advancing Translational Sciences (NCATS), 2018)
Out of some 48,000 compounds screened, about 1,200 (2.5%) were called active. Roughly 2% stayed inconclusive and do not appear here.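 How the source made its calls: active means activation of at least 60% and not above a set upper limit (about 1 call in 100 departs from these limits); inconclusive means activation of 40% to 60%, or above that upper limit; inactive means activation under 40%.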 This is one part of the list.
Further: 0% is about no effect.

These molecules were tested against Probable G-protein coupled receptor 32 (Homo sapiens) (UniProt O75388) (assay: qHTS for Agonists of Human Resolvin D1 Receptor DRV1). Details: CHO-K1 GPR32 beta-arrestin PathHunter luminescence, 90 min; at 76.9 µM; active compounds read high; zero percent set by DMSO-only wells.
Chain of UniProt O75388 (O75388 whole entry, looked up): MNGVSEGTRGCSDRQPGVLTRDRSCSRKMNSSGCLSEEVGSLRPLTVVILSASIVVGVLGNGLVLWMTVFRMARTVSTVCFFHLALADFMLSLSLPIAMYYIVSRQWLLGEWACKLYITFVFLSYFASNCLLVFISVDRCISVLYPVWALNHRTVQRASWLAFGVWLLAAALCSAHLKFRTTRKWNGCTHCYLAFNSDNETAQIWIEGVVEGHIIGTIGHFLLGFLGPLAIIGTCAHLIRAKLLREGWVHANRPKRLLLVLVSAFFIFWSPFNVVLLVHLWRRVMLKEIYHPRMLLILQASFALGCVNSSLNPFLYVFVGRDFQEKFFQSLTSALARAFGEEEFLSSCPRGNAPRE
Method in brief: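 Step 1: seed CHO-K1 GPR32 beta-arrestin cells, 2,500/well, overnight at 37 °C. Step 2: add compounds, 90 min at 37 °C. Step 3: detection reagent, 1 h ambient, then luminescence.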
In the case of `COc1ccc(CCNC(=O)CCc2c(C)c3cc4c(C)c(C)oc4cc3oc2=O)cc1`, the activation was inactive: -10.8%.
`Cc1ccc(-c2nn3c(-c4ccccc4)nnc3c3ccccc23)cc1` was tested, and the activation was inactive: -20.7%.
With `CC(C)Sc1ncc(Cl)c(C(=O)N(Cc2ccc(F)cc2)C2CCS(=O)(=O)C2)n1` (configuration not stated) the activation was inactive: -9.5%.
In the case of `O=C(Cc1cccs1)NC1CC(=O)N(c2ccc(Cl)cc2)C1` (configuration not stated), the activation was inactive: -6.57%.
With `Cc1cccc(C(=O)OCc2cc(=O)n3nc(C4CCCCC4)sc3n2)c1` the activation was inactive: -9.25%.
With `CCc1cccc(N2C(=O)CS(=O)(=O)C23C(=O)N(Cc2ccc(F)cc2)c2ccc(C)cc23)c1` (configuration not stated) the activation was inactive: -7.56%.
With `O=C(NCCC1=CCCCC1)c1ccc2c(c1)N(Cc1ccccc1F)C(=O)c1ccccc1S2(=O)=O` the activation was inactive: -7%.
`CCOc1ccc(N2CC(NC(=O)Cc3ccccc3)CC2=O)cc1` (configuration not stated) was tested, and the activation was inactive: -26%.
`Cc1ccc(NC(=O)CN2C(=O)C(C)(C)c3ccccc32)cc1` was tested, and the activation was inactive: -5.88%.
With `CC1=C(C(=O)Nc2ccc(C)cc2)C(c2ccc(Cl)cc2)n2nnnc2N1` (configuration not stated) the activation was inactive: -2.95%.
`Cc1ccc(S(=O)(=O)c2nc(-c3ccco3)oc2SCc2ccccc2Cl)cc1` was tested, and the activation was inactive: -23.9%.
For `CCOC(=O)c1c(NC(=O)c2ccc(S(=O)(=O)N3CCCC(C)C3)cc2)sc2c1CCN(C(C)C)C2` (configuration not stated), the activation was inactive: -1.94%.
In the case of `CCN1c2cc(C)ccc2-n2cccc2C12CCN(C(=O)Nc1cc(OC)c(OC)c(OC)c1)CC2`, the activation was inactive: -23.6%.
`COc1ccc(N2CC(NC(=O)COc3ccccc3C)CC2=O)cc1OC` (configuration not stated) was tested, and the activation was inactive: 10%.
In the case of `CCOC(=O)c1cc(-c2ccccc2)n(-c2cccc(C(=O)N(CC)c3ccccc3)c2)c1C`, the activation was inactive: -23.9%.
With `Cc1ccc(-n2c(SCC(=O)Nc3cccc(F)c3)nc3c(oc4ccccc43)c2=O)cc1C` the activation was inactive: -5.47%.
`Cc1c2cnn(-c3ccccc3)c(=O)c2c(C)n1C(C)C(=O)Nc1ccc(Br)cc1F` (configuration not stated) was tested, and the activation was inactive: -1.99%.
For `CC(C)c1ccc2oc(-c3cccc(NC(=O)c4ccc5c(c4)OCCO5)c3)nc2c1`, the activation was inactive: -2.17%.
In the case of `Cc1ccc2oc3c(c(=O)c2c1)C(c1cccc(O)c1)N(Cc1ccccc1Cl)C3=O` (configuration not stated), the activation was inactive: -18.6%.
In the case of `COc1cccc(NC(=O)C2CCCN2S(=O)(=O)c2ccc3c(c2)C(C)(C)C(=O)N3C)c1` (configuration not stated), the activation was inactive: -5.13%.
For `Cc1cc(C)cc(-n2ccn3c(CC(C)(C)CC(=O)O)nnc3c2=O)c1`, the activation was inactive: 9.13%.
For `COc1ccc(N2CCN(C(=O)NCc3noc4ccccc34)CC2)cc1`, the activation was inactive: -7.1%.
`CC(C)OP(=O)(CP(=O)(OC(C)C)OC(C)C)OC(C)C` was tested, and the activation was inactive: -8.74%.
For `CC(C)(C)OC(=O)N1CCC(c2c(C(=O)NCc3ccc4c(c3)OCO4)cnn2-c2ccccc2Cl)CC1`, the activation was inactive: -22.7%.
With `COc1ccc(C(=O)Nc2nnc(S(=O)(=O)N(CC(C)C)c3ccccc3)s2)cc1` the activation was inactive: -4.1%.
With `Cc1ccc(Cl)cc1NC(=O)c1ccc2snnc2c1` the activation was active: 85.3%.
`COc1cc(NC(=O)NCCn2nnc3cc(S(=O)(=O)N(C)C)ccc32)cc(OC)c1` was tested, and the activation was inactive: 10.7%.
For `Cc1ccc(Cn2c(C(=O)O)c(CNCc3cccs3)c3ccc(C)cc32)cc1`, the activation was active: 111%.
With `COc1ccc(NC(=O)c2ccc3c(c2)nnn3C2CCCC2)cc1Cl` the activation was inactive: -0.977%.
With `CC1=C(C(N)=O)C(c2ccc(F)cc2)n2nc(-c3ccc(N(C)C)cc3)nc2N1` (configuration not stated) the activation was inactive: -8.45%.
For `CCN(C(=O)c1cc(S(=O)(=O)N2CCc3ccccc32)cn1C)c1cccc(C)c1`, the activation was inactive: -26.3%.
With `CNS(=O)(=O)c1cn(CC(=O)Nc2ccc(C)c(N(C)C)c2)cc1S(=O)(=O)NC` the activation was inactive: -4.91%.
In the case of `Cc1ccc(-c2nn(CC(=O)NC3CCCCC3)c3c2cnc2ccccc23)cc1`, the activation was inactive: -11.2%.
In the case of `Cc1ccc2c(=O)c(C(=O)c3ccc(F)cc3)cn(CC(=O)NCc3ccccc3Cl)c2n1`, the activation was inactive: 0.291%.
`CCc1c(C(=O)NCCc2ccc(N3CCCCC3)cc2)[nH]c2ccc(Cl)cc12` was tested, and the activation was inactive: -15.3%.
`Oc1ccc(C(O)CNCCCCCCNCC(O)c2ccc(O)c(O)c2)cc1O` (configuration not stated) was tested, and the activation was inactive: 5.4%.
`CCN(CCCNC(=O)c1nn(-c2ccc(OC)c(Cl)c2)c(=O)c2c1c1ccccc1n2C)c1cccc(C)c1` was tested, and the activation was inactive: -8.95%.
In the case of `CCOC(=O)c1ccc(NS(=O)(=O)c2cc(Br)cc3c2N(C(C)=O)C(C)C3)cc1` (configuration not stated), the activation was inactive: -3.78%.
For `CCOC(=O)C(=O)Nc1c(C(=O)Nc2cccc(F)c2)oc2ccccc12`, the activation was inactive: 15.3%.
`COc1ccccc1N1CCN(c2nc3c(S(=O)(=O)c4ccc(C)c(C)c4)nnn3c3ccc(Cl)cc23)CC1` was tested, and the activation was inactive: 3.83%.
For `Cc1cccc(-n2ccnc2SCC(=O)Nc2nc3ccccc3s2)c1`, the activation was inactive: -0.342%.
For `Cc1cc2[nH]c(=O)c(=O)[nH]c2cc1S(=O)(=O)N1CCN(c2cccc(C)c2C)CC1`, the activation was inactive: -1.43%.
In the case of `Cc1ccc(Cn2c(CNS(=O)(=O)c3ccc(Cl)s3)nc3cccnc32)cc1`, the activation was inactive: -25.1%.
In the case of `Cc1cccc(-c2nc(SCC(=O)NCc3ccco3)c3c(=O)n(C)c(=O)n(C)c3n2)c1`, the activation was inactive: -4.71%.
With `COc1ccc(CNC(=O)c2cc(-c3ccc(C)c(C)c3)n[nH]2)cc1` the activation was inactive: 18.8%.
`CCc1c(C)sc(NC(=O)C2c3ccccc3Oc3ccccc32)c1C(=O)OC(C)C` was tested, and the activation was inactive: -1.23%.
For `CCc1ccccc1Nc1cc(C(=O)NC2CCC(C)CC2)c2ccccc2n1` (configuration not stated), the activation was inactive: -0.201%.
`CCOC(=O)c1cccc(NC(=O)C2CCCN(c3nnc(C)c4c(C)n(-c5ccccc5)nc34)C2)c1` (configuration not stated) was tested, and the activation was inactive: 6.92%.
For `O=C(Nc1cc(Cl)cc(Cl)c1)c1cc(S(=O)(=O)N2CCc3ccccc3C2)ccc1F`, the activation was inactive: -21.5%.
With `COc1ccc(C(=O)Nc2c(C(=O)c3ccccc3)oc3ccccc23)cc1` the activation was inactive: -6.03%.
For `COc1ccc(OC)c(C2C(C(=O)Nc3ccccc3OC)=C(C)Nc3c(C(=O)Nc4ccc(F)cc4)cnn32)c1` (configuration not stated), the activation was inactive: -22.5%.
In the case of `Cn1c(=O)c(=O)n(C)c2cc(N3CCOCC3)c(NS(=O)(=O)c3ccc(F)c(Cl)c3)cc21`, the activation was inactive: -34.1%.
In the case of `Cc1ccc(-c2nnc3ccccc3c2C(=O)Nc2cccc(Cl)c2)cc1`, the activation was inactive: -9.41%.
With `COc1ccc(NC(=O)c2cc3cc(C)ccc3n2C)cc1` the activation was inactive: 1.78%.
`COc1ccc(C)cc1N(C)C(=O)c1c(C)oc2ncnc(N3CCOCC3)c12` was tested, and the activation was inactive: -17%.
With `COc1cccc(NC(=O)CN(C)S(=O)(=O)c2ccc3nc(C)sc3c2)c1` the activation was inactive: -4.06%.
With `CN(c1ccc(Cl)cc1)S(=O)(=O)c1nnc(NC(=O)C2CCCCC2)s1` the activation was inactive: -7.67%.
In the case of `COc1cc(C(=O)Oc2c(Sc3ccc(C)cc3)c(C)nn2-c2ccccc2)cc(OC)c1OC`, the activation was inactive: -8.21%.
`CCNC(=O)c1cnc2sc(N3CCCCCC3)nn2c1=O` was tested, and the activation was inactive: 2.83%.
`COC(=O)c1c(C)sc(-c2c(-c3ccc4c(c3)OCCO4)[nH]c3c2c(=O)n(C)c(=O)n3C)c1O` was tested, and the activation was inactive: -21%.
In the case of `CCOc1ccccc1NC(=O)c1c(NC(=O)c2ccccc2C)sc2c1CCC(C)C2` (configuration not stated), the activation was inactive: -28.9%.
For `COC(=O)c1n[nH]n(-c2ccccc2)c1=O`, the activation was inactive: -9.54%.
In the case of `Nc1nnc(SCC(=O)Nc2ccccc2C(F)(F)F)s1`, the activation was inactive: -13%.
In the case of `O=C(NCCc1ccc(Cl)cc1)c1ccc(CS(=O)Cc2cccc(Cl)c2)o1` (configuration not stated), the activation was inactive: 4.76%.
`CCC(C)NC(=O)c1cnn(-c2ccc(Cl)cc2)c1C1CCN(C(=O)OC(C)(C)C)CC1` (configuration not stated) was tested, and the activation was inactive: -9.11%.
In the case of `Cc1cccc(NC(=O)C2CCCN(S(=O)(=O)c3cnc[nH]3)C2)c1C` (configuration not stated), the activation was inactive: -2.23%.
With `Cc1ccc2c(c1)cc(C(=O)Nc1ccc(F)cc1F)n2C` the activation was inactive: 1.01%.
For `CN(C1CCCCC1)S(=O)(=O)c1ccc2c(c1)c(=O)c(C(=O)NCCc1ccccc1)cn2C`, the activation was inactive: -20.3%.
With `Cc1ccn2c(Nc3ccc4c(c3)OCCO4)c(-c3ccc(Cl)s3)nc2c1` the activation was inactive: -27.7%.
With `Cc1oc(-c2ccc(C(=O)Nc3cc(F)ccc3F)cc2)nc1COc1ccccc1` the activation was inactive: 26.5%.
For `Cn1c(=O)c2cc(C(=O)N3CCN(c4ccc(Cl)cc4)CC3)sc2c2ccccc21`, the activation was inactive: 12.8%.
With `CCOC(=O)c1cc(NC(=O)c2ccc(F)cc2)c(=O)n2c1oc1ccccc12` the activation was inactive: -0.147%.
For `Cc1ccc(C(=O)N(Cc2ccc(N(C)C)cc2)Cc2ccco2)cc1`, the activation was inactive: -23.7%.
`O=C(Nc1cccc(Cl)c1Cl)c1ccc2c(c1)N(Cc1cccc(Cl)c1)C(=O)c1ccccc1S2(=O)=O` was tested, and the activation was inactive: -30.6%.
In the case of `Cc1nc2nc(NCc3cccc(Br)c3)[nH]n2c(=O)c1Cc1ccccc1`, the activation was inactive: 2.22%.
For `COc1cc2ccccc2cc1C(=O)Nc1cccc(-c2nc3cc(C)c(C)cc3o2)c1C`, the activation was inactive: -7.95%.
For `COc1ccc2oc(=O)c(C(=O)NCCc3c(C)[nH]c4c(Cl)cccc34)cc2c1`, the activation was inactive: -2.94%.
`CCc1ccccc1NC(=O)N1CCN(c2cc(-c3noc(C)n3)ccc2C)CC1` was tested, and the activation was inactive: 8.94%.
In the case of `O=S(=O)(Nc1ccc(Cl)cc1)c1ccc(NS(=O)(=O)c2ccc3c(c2)OCCO3)cc1`, the activation was inactive: 23.9%.
`Cc1ccc(CN(C(=O)COc2cccc([N+](=O)[O-])c2)c2ccccn2)o1` was tested, and the activation was inactive: -1.21%.
`CCOC(=O)c1cccc(NC(=O)C(CC(C)C)N2Cc3ccccc3C2=O)c1` (configuration not stated) was tested, and the activation was inactive: -32.5%.
`Cn1nnnc1SCCNCc1ccc(F)cc1` was tested, and the activation was inactive: -5.49%.
